Data set [1] is described as follows: Percentage of monomer of ADCs by SEC-HPLC. The data set is classed as physicochemical. As for the experimental part:
• Chromatography column: Biocore SEC-300 5 μm, 4.6×300 mm; • Manufacturer: NanoChrom, Product code: B213-050030-04630S; • Mobile phase: 50 mM PB+300 mM NaCl+200 mM Arg+5% IPA, pH=6.5;
• Chromatography column: ACQUITY UPLC Protein SEC 4.6×150 mm […] • Manufacturer: waters Product code: 186005225 • Mobile phase: 50 mM PB+300 mM NaCl+200 mM Arg+5% IPA, pH=6.5

Data set [2] addresses T1, recombinant TROP2-His*6 antigen (Homo sapiens, UniProt P09758).
T1 construct: His*6
T1 sequence (P09758 27-323): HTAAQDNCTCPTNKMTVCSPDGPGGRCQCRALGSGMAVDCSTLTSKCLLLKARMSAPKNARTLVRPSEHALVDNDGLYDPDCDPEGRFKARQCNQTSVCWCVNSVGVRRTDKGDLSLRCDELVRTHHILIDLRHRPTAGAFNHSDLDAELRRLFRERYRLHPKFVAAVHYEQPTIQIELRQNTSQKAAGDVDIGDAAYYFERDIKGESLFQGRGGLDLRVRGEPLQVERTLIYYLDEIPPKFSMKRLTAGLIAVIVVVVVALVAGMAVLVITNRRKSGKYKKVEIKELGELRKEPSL
The experiment in a line: Double-antigen sandwich ELISA, relative affinity to TROP2. The data set is classed as binding. To be noted: OD450 nm, EC50 compared. As for the experimental part: The recombinant TROP2-His*6 antigen was coated on the plate and then blocked with 1% bovine serum albumin; hu4D3 and the corresponding ADC and TINA1 and the corresponding ADC were diluted respectively, and then serially diluted 3 folds at a starting concentration of 2000 ng/mL respectively, for a total of 11 concentrations. After the sample was incubated on the coated elisa plate for a period of time, the secondary antibody labeled by goat anti-human Fc-HRP was added for incubation. Finally, TMB color development was performed and terminated by sulfuric acid solution, and the absorption value at 450 nm was detected on an elisa plate. The results are plotted on concentration at OD450 nm.

The test system of data set [3] is human tumor cell line (BxPC-3). The experiment in a line: In vitro drug efficacy of antibodies and ADCs, MTS cell viability. The format is cell-based. Particulars: for IC50: BxPC-3, 5 days, MTS; for in vitro cytotoxicity (in words): BxPC-3 cells. As for the experimental part:
In the present invention, a human tumor cell line (BxPC-3) was used as an experimental model to evaluate the in vitro efficacy of ADCs. A certain number of tumor cells were inoculated into a 96-well plate, and gradient dilutions of the test antibody and the corresponding ADC were added to the cells, the cells were treated for 5 days, cell viability was detected by using MTS, and IC50 was calculated to evaluate the in vitro inhibitory effect of the test antibody and ADCs on the tumor cell line. The cells were treated for 5 days with the antibody drugs having initial concentration of 500 nM, diluted 7 folds, with a total of 8 concentration points. Finally, the cell survival was calculated as: survival rate=(experimental group-blank group)/(control group-blank group)×100%. Then, by using Graph Pad Prism, the curve was fitted and the half inhibitory concentration (IC50) was calculated.

The subject of another data set is BXPC3. The experiment in a line: In vivo drug efficacy, BXPC3 single tumor model. To be noted: BXPC3 tumor-bearing BALB/c nude mice, tail vein once a week, four times. As for the experimental part:
(§1) The tumors were measured twice a week to evaluate the inhibitory effects of test antibodies and ADCs on tumor cell lines.

Another data set concerns A431+SW620. In words: In vivo drug efficacy, A431+SW620 heterogeneous tumor. On the set-up: species or system BALB/c nude mice. Particulars: for in vivo efficacy (in words): BALB/c nude mice, tail vein once a week, four times. As for the experimental part: as §1
How the values of data set [4] were obtained:
The mixture of an ADC and IgG-depleted plasma were formulated with the final concentration of ADC being 0.6 mg/mL. The plasma mixture was incubated in a water bath box in a 37° C. incubator. The incubation time was set to 0 days, 3 days, and 7 days. At the same time, the unincubated plasma control was set. The incubated sample was purified and extracted and then tested for the DAR to reflect the stability of the ADC in plasma.

The next data set relates to Fadu. The experiment in a line: In vitro drug efficacy test of ADCs, Alamar Blue or MTS. The data set is classed as cell-based, human. To be noted: 5 days. As for the experimental part:
(§2) The in vitro efficacy of ADCs was evaluated by using experimental models of various human tumor cell lines (N87, SW620, Fadu, and HCC827) and SW620+A431 heterogeneous tumor.
(§3) A certain number of tumor cells were inoculated into a 96-well plate, and gradient dilutions of the test antibody and the corresponding ADC were added to the cells, the cells were treated for 5 days, cell viability was detected by using Alamar Blue or MTS, and IC50 was calculated to evaluate the inhibitory effect of the test ADCs on the tumor cell line. The cells were treated for 5 days with the antibody drugs having initial concentration of 500 nM, diluted at 7 times, with a total of 8 concentration points. Finally, the cell survival was calculated as: survival rate=(experimental group-blank group)/(control group-blank group)×100%. Then, by using Graph Pad Prism, the curve was fitted and the half inhibitory concentration (IC50) was calculated.

Another data set relates to HCC827. Described as above. To be noted: HCC827, 5 days. The data set is classed as cell-based, human. As for the experimental part:
as §2, §3

In another data set the test system is N87. Described as above. The data set is classed as cell-based, human. To be noted: N87, 5 days. As for the experimental part:
as §2, §3

The next data set relates to SW620 + A431. The description is as above. The format is cell-based, human. To be noted: SW620 + A431, 5 days. As for the experimental part: as §2, §3
The subject of the next data set is SW620. The data set is described as above. The format is cell-based, human. To be noted: SW620, 5 days. As for the experimental part:
as §2, §3

Entries after “also recorded” stand apart in the source; their conditions may differ.

B1: ADC-2 (conjugate)
heavy: QVQLVQSGAEVKKPGASVKLSCKASGYTFTSFDINWVRQAPEQRLEWMGWIFPGDGNTKYSQKFQGRATITRDTSASTAYMELSSLRSEDTAVYYCVRGEALYYFDYWGQGTLVTVSS[human IgG1 constant region not shown]
light: DIQMTQSPSSLSASVGDRVTITCRASQDINKYLAWYQQKPGKVPKLLIYSTSTLQSGVPSRFSGSGSGTDFTLTISSLQPEDVATYYCLQYDDLFTFGQGTKLEIKRTVAAPSVFIFPPSDEQLKSGTASVVCLLNNFYPREAKVQWKVDNALQSGNSQESVTEQDSKDSTYSLSSTLTLSKADYEKHKVYACEVTHQGLSSPVTKSFNRGEC
The term IC50 denotes the concentration at which inhibition is half-maximal. On to B1, for which, in [1], the Aggregate % is on record as 1.276%, the Degradation % is 0% and the Monomer % came to 98.724%. Moreover, in [2], the “affinity for antigen TROP2 compared with the corresponding antibody” value was “maintains the same affinity”. Moreover, in [3], half-maximal inhibition (IC50) required 84.9 nM and the “in vitro cytotoxicity (in words)” value was “significantly greater than that of DS1062a”.

B2: ADC-10 (conjugate)
heavy: B1 heavy
light: B1 light
In data set [1], B2 had an Aggregate % of 2.530%, a Degradation % of 0% and a Monomer % of 97.470%. For the same molecule, in data set [2], the “affinity for antigen TROP2 compared with the corresponding antibody” value was “maintains the same affinity”. In [3], the IC50 was determined as 35.9 nM and the “in vitro cytotoxicity (in words)” value was “significantly greater than that of DS1062a”. Besides, the “in vivo efficacy (in words)” value with BXPC3 is “superior to that of DS1062a and ADC-1; also recorded: superior to those of DS1062a”.

B3: ADC-12 (conjugate)
heavy: B1 heavy
light: B1 light
Take B3: the “affinity for antigen TROP2 compared with the corresponding antibody” value in data set [2] was “maintains the same affinity”. Besides, in data set [3], the midpoint of inhibition, the IC50, lay at 2.13 nM and the “in vitro cytotoxicity (in words)” value is reported as “significantly greater than that of DS1062a”. Moreover, the “in vivo efficacy (in words)” value in the data set with BXPC3 was “superior to that of DS1062a and ADC-1; also recorded: superior to those of DS1062a”. For the same molecule, in the data set with A431+SW620, the bystander effect entry is listed as “good “bystander effect”” and the “in vivo efficacy (in words)” value is “superior to those of DS1062a”.

B4: ADC-6 (conjugate)
heavy: B1 heavy
light: B1 light
In the case of B4, the Aggregate % in data set [1] is on record as 1.236%. For the same molecule, in data set [1], the Degradation % came out at 0%. Also, the Monomer % in data set [1] turned out to be 98.764%. Besides, in data set [4] (ADC 0.6 mg/mL in IgG-depleted plasma, 37° C., 0 days), the “DAR Incubated in plasma for 0 days” value worked out at 7.30. In addition, the “DAR Incubated in plasma for 3 days” value in [4] (ADC 0.6 mg/mL in IgG-depleted plasma, 37° C., 3 days) was found to be 7.25. The “DAR Incubated in plasma for 7 days” value in data set [4] (ADC 0.6 mg/mL in IgG-depleted plasma, 37° C., 7 days) is reported as 7.26. Further, the “DAR Unincubated” value in data set [4] (unincubated control) came to 7.38. Further, the “affinity for antigen TROP2 compared with the corresponding antibody” value in data set [2] was “maintains the same affinity”. The IC50 in [3] stood at 3.31 nM; with Fadu, 3.16 nM; in the data set with HCC827, 1.33 nM; in the data set on N87, 4.05 nM; in the data set with SW620 + A431, 0.719 nM; in the data set with SW620, 17.1 nM. For the same molecule, the “in vitro cytotoxicity (in words)” value in data set [3] was “significantly greater than that of DS1062a”. Besides, the “in vivo efficacy (in words)” value in the data set on BXPC3 was “superior to that of DS1062a and ADC-1; also recorded: superior to those of DS1062a”; with A431+SW620, “superior to those of DS1062a”. Besides, in the data set with A431+SW620, the bystander effect entry is on record as “good “bystander effect””.

(Values after US20250205349A1, “ANTI-HUMAN TROP2 ANTIBODY-CAMPTOTHECIN DRUG CONJUGATE AND MEDICAL USE THEREOF” (SYSTIMMUNE, INC., priority 2021, published 2025).)
